Data taken from PMC4336329 (PLoS ONE, 2015).
Hit rate of the full screen: of about 310,000 compounds, about 2,200 (0.71%) showed an effect of 50% or more. Effects have a minus sign here. Some of the results follow.

These compounds were tested against human ether-à-go-go-related gene (hERG) potassium channel (human, UniProt Q12809) (assay: primary screen, population patch clamp on CHO cells stably expressing hERG).
Chain of human ether-à-go-go-related gene (hERG) potassium channel (Q12809 whole entry, looked up): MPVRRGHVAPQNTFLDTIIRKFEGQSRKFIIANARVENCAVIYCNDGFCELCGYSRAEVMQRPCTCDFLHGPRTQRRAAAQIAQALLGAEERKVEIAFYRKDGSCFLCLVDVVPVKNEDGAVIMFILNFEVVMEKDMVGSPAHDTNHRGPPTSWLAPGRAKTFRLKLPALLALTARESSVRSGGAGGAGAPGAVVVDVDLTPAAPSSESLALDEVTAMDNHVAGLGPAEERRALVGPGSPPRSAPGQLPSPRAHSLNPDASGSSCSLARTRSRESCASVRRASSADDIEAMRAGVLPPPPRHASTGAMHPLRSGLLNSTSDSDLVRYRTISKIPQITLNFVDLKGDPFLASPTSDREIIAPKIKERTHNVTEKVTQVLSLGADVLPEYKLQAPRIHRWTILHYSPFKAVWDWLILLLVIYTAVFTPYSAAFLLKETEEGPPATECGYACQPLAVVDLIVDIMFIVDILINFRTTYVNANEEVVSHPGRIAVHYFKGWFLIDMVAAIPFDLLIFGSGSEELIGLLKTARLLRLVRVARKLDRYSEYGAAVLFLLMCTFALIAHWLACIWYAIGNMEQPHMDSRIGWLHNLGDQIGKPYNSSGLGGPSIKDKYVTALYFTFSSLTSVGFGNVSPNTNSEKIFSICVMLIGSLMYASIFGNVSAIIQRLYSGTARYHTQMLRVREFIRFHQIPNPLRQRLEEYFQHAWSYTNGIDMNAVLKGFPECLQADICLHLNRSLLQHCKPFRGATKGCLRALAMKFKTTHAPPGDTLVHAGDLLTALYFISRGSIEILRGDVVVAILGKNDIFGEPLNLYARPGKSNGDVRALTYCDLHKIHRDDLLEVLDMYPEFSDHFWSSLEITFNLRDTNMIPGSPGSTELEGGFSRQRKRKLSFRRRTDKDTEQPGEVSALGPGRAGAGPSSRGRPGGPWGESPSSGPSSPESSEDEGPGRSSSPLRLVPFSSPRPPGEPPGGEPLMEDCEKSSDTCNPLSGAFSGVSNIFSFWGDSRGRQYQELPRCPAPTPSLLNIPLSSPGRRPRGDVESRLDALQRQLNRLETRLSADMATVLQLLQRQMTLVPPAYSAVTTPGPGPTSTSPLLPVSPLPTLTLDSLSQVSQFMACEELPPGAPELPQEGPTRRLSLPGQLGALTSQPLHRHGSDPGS

| Compound | hERG current change (%, negative = inhibition) at 1uM |
| --- | --- |
| Cc1nnc(NC(=O)CSc2nnc(C)n2Cc2ccccc2)s1 | 15.9% |
| COc1ccc(NC(=O)Cc2cccs2)c(OC)c1 | 2.52% |
| CCc1cccc(C)c1Nc1nc2ccccc2n2cnnc12 | -6.58% |
| CC(O)CNc1ccc(-c2n[nH]c(=O)c3ccccc23)cc1[N+](=O)[O-] (stereo not drawn) | 6.59% |
| Cc1ccc(Oc2ncccc2NC(=O)CC(CC(=O)O)c2ccccc2)c2c1CCC2 (stereo not drawn) | 10.1% |
| COc1ccc(N/C=C/C(=O)C(C)(C)C)cc1 | 2.04% |
| O=C(c1ccc2c(c1)OCO2)N1CCC2(CC1)Oc1ccc(F)cc1C(=O)C21CC(c2cccnc2)=NO1 (stereo not drawn) | 4.11% |
| Cc1ccc(-n2nc(C(=O)NN)c(C)c(C#N)c2=O)cc1Cl | 12.5% |
| COc1ccc2[nH]c3c(c2c1)CCNC3C1CC=C(C)CC1.Cl (stereo not drawn) | 5.8% |
| CC(=O)c1sc(-c2ccccc2)cc1NS(=O)(=O)c1ccc(C)cc1 | 7.24% |
| CN(C(=O)COC(=O)CSc1cc(Cl)ccc1Cl)c1c(N)n(Cc2ccccc2)c(=O)[nH]c1=O | 2.32% |
| CCOc1ccc([C@@H]2CC=C(C(=O)O)[C@H](c3ccc(Cl)cc3)N2S(=O)(=O)c2ccc(C)cc2)cc1 | 14.7% |
| Cc1cnc(CN(C)C(=O)C2CCC(=O)N(CCc3ccccc3)C2)[nH]1 (stereo not drawn) | 16.3% |
| Cc1ccnc2nc(C(=O)OCC(=O)NC(=O)NCc3ccco3)nn12 | 14.5% |
| Cc1nn(C)c(C)c1NS(=O)(=O)c1ccc(Cl)cc1 | 6.13% |
| CC(CCc1ccccc1)NC(=O)C1CCN(c2nnc(-n3cccc3)s2)CC1 (stereo not drawn) | 9.13% |
| O=C(O)c1ccccc1C(=O)NC1CCCCNC1=O (stereo not drawn) | 13.5% |
| O=C(NCC1CCCO1)C1CCCN1C(=O)Nc1ccc(Cl)c(Cl)c1 (stereo not drawn) | -1.87% |
| CCOC(=O)C1=C(C)NC2=C(C(=O)CC(C)(C)C2)C1c1coc2ccccc2c1=O (stereo not drawn) | 16.1% |
| CCOc1ccccc1NC(=O)Nc1ccccn1 | -1.49% |
| Cc1ccc(Nc2c(N)c(=O)oc3ccccc23)cc1 | -1.81% |
| Cc1cccc(-c2c3c(=O)n(C)c(=O)n(C)c3cn2C2CCCCC2)c1 | 14.9% |

| Compound | hERG current change (%, negative = inhibition) at 1uM |
| --- | --- |
| CC(=O)Nc1ccc(N(CC(=O)NC2CCCCC2)C(=O)Cn2nnc(-c3ccccc3)n2)cc1 | 11.4% |
| CC1(c2nnc(-c3ccc(F)cc3)o2)CC(c2ccc(F)cc2)=NO1 (stereo not drawn) | 1.91% |
| Cc1c(-c2cc(C(=O)O)c3ccccc3n2)cnn1C | 5.51% |
| CCn1c(Cc2ccc(OC)cc2)nnc1SCC(=O)Nc1ccc(N2CCOCC2)cc1 | 10.6% |
| COc1ccc2c(c1OC)C(=O)N(c1ccc(OCc3ccccc3)cc1)C2=O | 14.3% |
| Cc1ccc(Cn2cccc(NC(=O)NC3CCCCC3)c2=O)cc1 | 9.24% |
| CCn1c(=O)c2cc(S(=O)(=O)NCCOc3ccccc3)ccc2n(CC)c1=O | 8.38% |
| CC(OC(=O)C1CCCCC1)C(=O)Nc1ccc(S(N)(=O)=O)cc1 (stereo not drawn) | 9.37% |
| CN1C(=S)SC(N(O)C=C2C=CC(=O)C=C2)C1(C)C (stereo not drawn) | 2.23% |
| Cc1nn(C(C)C(=O)NCc2ccc(Cl)cc2)c(=O)c2cc3occc3n12 (stereo not drawn) | -0.612% |
| Cc1nc(NC(=O)c2csc3ccccc23)sc1C | -0.974% |
| Cc1cc(-n2c(C)cc(C(=O)CSc3nnnn3-c3ccccc3)c2C)no1 | -2.58% |
| CCCCc1oc2c(c(=O)c1C)C(=O)CC(c1ccccc1)C2 (stereo not drawn) | -7.99% |
| CCCC(=O)Nc1ccccc1N1CCN(C(=O)c2ccccc2)CC1 | -8.85% |
| COC(=O)C1C2C=CC3(CN(CC4CCCO4)C(=O)C13)O2 (stereo not drawn) | 20.1% |
| COc1ccc[nH]c1=O | 1.28% |
| CC(=O)N[C@@H](C)C(=O)N1CCN(S(=O)(=O)c2ccc(Cl)cc2)CC1 | 3.31% |
| Cc1cc(NC(=O)CCC(=O)N(Cc2cccs2)C(C(=O)NC2CCCC2)c2cccnc2)no1 (stereo not drawn) | 19% |
| COc1cc2c(cc1OC)C(C(=O)Nc1ccc(F)c(Cl)c1)CC(=O)N2 (stereo not drawn) | 13.9% |
| O=C(COc1ccc2c(c1)CCC2)NCc1ccc(Cl)cc1 | 13.5% |
| Cc1ccnc(NC2(C(F)(F)F)N=C(c3ccccc3)NC2=O)c1 (stereo not drawn) | 10.2% |
| CCOC(=O)NC(=O)/C(C#N)=C\c1ccccc1 | 12.3% |

| Compound | hERG current change (%, negative = inhibition) at 1uM |
| --- | --- |
| Cc1cc(NC(=O)CCC(=O)N(CC(=O)NC2CCCC2)c2ccc(Cl)cc2)no1 | -5.62% |
| CCn1nnc(NC(=O)c2ccc([N+](=O)[O-])o2)n1 | 8.58% |
| COc1ccc(OC)c(S(=O)(=O)Nc2ccc3c(c2)n(C)c(=O)n3C)c1 | 6.15% |
| O=S(=O)(c1ccc(Cl)cc1)c1nc(-c2ccccc2F)oc1NCCN1CCOCC1 | -0.205% |
| CCOC(=O)c1cc2c(=O)n3ccccc3nc2n(C(C)C)c1=NC(=O)c1c(-c2ccccc2Cl)noc1C | 19.4% |
| C/C(=C\C#N)n1nc(C)cc1N | 14.4% |
| CC(C)(C)NC(=O)CSc1nc2cccnc2n1C1CCCCC1 | 8.34% |
| CC/C(O)=C(\C#N)c1nnc2n1CCCCC2 | 11.6% |
| CCCOc1ccc(C(=O)NNC(=O)c2cccc(S(=O)(=O)N3CCN(C(C)=O)CC3)c2)cc1OC | -5.72% |
| O=C1C2C3C=CC(C3)C2C(=O)N1/N=C/c1cn(Cc2ccccc2)c2ccccc12 (stereo not drawn) | 3.4% |
| Nc1nnc(SCC(=O)c2cccc([N+](=O)[O-])c2)s1 | 1.05% |
| Cc1ccc(CNC(=O)CCc2c(C)nc3ncnn3c2C)cc1 | 5.5% |
| Cc1ccc(S(=O)(=O)N2CCN(S(=O)(=O)N3CCC(C)CC3)CC2)cc1C | 12.3% |
| CSCCCNC(=S)N1CCN(S(=O)(=O)c2cccc(C(F)(F)F)c2)CC1 | 8.66% |
| O=C(CCNC(=O)c1ccc(Br)cc1)Nc1cccc(S(=O)(=O)N2CCCCC2)c1 | 4.54% |
| COC(=O)C1CCN(C(=O)COc2ccc(N(C)S(=O)(=O)c3ccc(C)cc3)cc2)CC1 | -2.93% |
| CC(C)c1nnc(NC(=O)CCS(=O)(=O)Cc2ccccc2)s1 | 10.7% |
| O=C(N/N=C/c1ccccn1)C1CC1 | 1.69% |
| COc1cc(SC)ccc1C(=O)NCCCOC(C)C | 8.43% |
| CCOc1ccc(NC(=O)CC2C(=O)NCCN2C(=O)Nc2ccccc2)cc1 (stereo not drawn) | 3.83% |
| Cc1cc(NC(=O)CSc2nnc(-c3ccncc3)n2N)ccc1Br | 3.1% |
| Cc1ccc(-c2cc(C(=O)Nc3nccs3)c3ccccc3n2)c(C)c1 | 13.5% |

| Compound | hERG current change (%, negative = inhibition) at 1uM |
| --- | --- |
| Cc1ccc(C)c(S(=O)(=O)N2CCCOC2CNC(=O)C(=O)NCc2ccncc2)c1 (stereo not drawn) | 9.48% |
| CCOC(=O)N1CCC(Nc2c(N3CCN(c4cc(Cl)ccc4C)CC3)c(=O)c2=O)CC1 | -25.6% |
| CC(C)C[C@H](NC(=O)C1CC(=O)N(c2ccc3c(c2)OCO3)C1)C(=O)NC1CCCC1 (stereo partly drawn) | 8.83% |
| CC(/C=C/c1ccccc1)=N\NC(=O)c1ccncc1 | -1.6% |
| O=C(COC(=O)c1ccc([N+](=O)[O-])s1)Nc1ccc(F)cc1 | 2.01% |
| CCN(CC)CCNC(=O)c1ccc(NC(=O)c2ccc(COc3ccccc3)cc2)cc1 | 16.8% |
| NC(=O)c1ccccc1NS(=O)(=O)c1ccc2c(c1)OCCO2 | 9.03% |
| COc1ccc(CCCc2n[nH]c(=S)o2)c(C)c1 | 13.4% |
| CC(=O)C1C(=O)c2c(cccc2[N+](=O)[O-])C1=Nc1ccc(S(N)(=O)=O)cc1 (stereo not drawn) | 10.7% |
| Cl.c1cncc(CNC2CCCCC2)c1 | 17.2% |
| CN1CCN(CCC(=O)Nc2ccc(Br)cc2)CC1 | 2.21% |
| CC(C)N1CCc2c(sc(NC(=O)c3ccc(S(=O)(=O)N4CCCCC4C)cc3)c2C(N)=O)C1 (stereo not drawn) | -3.28% |
| CCOC(=O)c1cnc(SCC(=O)OC)nc1N | 20.2% |
| CN(C)c1ccc(/C=C(/NC(=O)c2ccccc2)C(=O)N2CCCC2)cc1 | 11.4% |
| O=C(O)c1cccc(S(=O)(=O)Nc2ccccc2C(=O)NCCc2ccccc2)c1 | 9.88% |
| COc1ccc(C(=O)NC(=S)Nc2ccc(S(=O)(=O)Nc3cc(OC)ncn3)cc2)cc1 | 14.2% |
| O=C(Nc1ccc(OCc2ccccc2)cc1)c1cccnc1 | 13.6% |
| Cc1c(N=c2c(=O)c3ccccc3c2=O)c(=O)n(-c2ccccc2)n1C | 0.192% |
| COc1ccc(S(=O)(=O)NCCCCOc2ccc(Cl)cc2)cc1 | 14.1% |
| CC(=O)Nc1ccc(S(=O)(=O)N2c3ccccc3C(C)=CC2(C)C)cc1 | 0.665% |
| O=C(N/C=C\n1cnc2cc(C(F)(F)F)ccc21)c1ccc([N+](=O)[O-])cc1 | 4.98% |
